Source: PubChem BioAssay AID1030 (National Center for Advancing Translational Sciences (NCATS), 2008)
Hit rate of the full screen: of about 220,000 compounds, about 16,000 (7.3%) were called active. The inconclusive results got no clear call from the source; some entries with a clear call stand among them for comparison. Calls come from the whole dose curve; as a rule, active = well fitted inhibition curve with a large enough effect (not every such curve was filed as active); inconclusive = small, poorly fitted or top-dose-only effect, or another doubt; inactive = no such curve, though single readings can be large or run the other way. Potencies of inconclusive entries are left out as doubtful fits.

Biological target: Aldehyde dehydrogenase 1A1 (Homo sapiens) (UniProt P00352)
Test: qHTS Assay for Inhibitors of Aldehyde Dehydrogenase 1 (ALDH1A1);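 for activity, negative = inhibition: plate controls were no enzyme wells and a reference inhibitor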
Conditions: Purified ALDH1A1, NADH fluorescence, propionaldehyde substrate; series mostly up to 75.3 µM
Potency is the fitted concentration of half-maximal effect; tags give direction and shape of the fitted curve.

Sequence of UniProt P00352 (P00352 whole entry, looked up): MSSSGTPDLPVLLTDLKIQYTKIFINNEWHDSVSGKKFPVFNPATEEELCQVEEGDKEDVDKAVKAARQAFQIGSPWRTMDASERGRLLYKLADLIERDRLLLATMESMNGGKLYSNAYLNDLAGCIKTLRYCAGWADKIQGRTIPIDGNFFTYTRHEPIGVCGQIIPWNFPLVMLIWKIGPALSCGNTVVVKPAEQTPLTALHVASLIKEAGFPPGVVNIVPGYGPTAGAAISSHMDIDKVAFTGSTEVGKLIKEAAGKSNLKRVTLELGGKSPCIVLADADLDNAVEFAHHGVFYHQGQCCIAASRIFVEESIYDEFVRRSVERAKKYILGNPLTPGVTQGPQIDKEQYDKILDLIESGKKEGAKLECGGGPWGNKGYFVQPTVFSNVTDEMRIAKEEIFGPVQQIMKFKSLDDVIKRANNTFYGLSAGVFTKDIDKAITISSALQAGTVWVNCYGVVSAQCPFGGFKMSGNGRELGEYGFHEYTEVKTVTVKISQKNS

SMILES | Potency | activity, negative = inhibition
CC(C)c1nnc(NC(=O)C2CCCN2C(=O)Nc2ccccc2[N+](=O)[O-])s1 (configuration not stated) | inactive | 
Cc1ccc(NC(=O)c2cc(C)n(-c3ccccc3)c2C)cc1 | inconclusive [inhibitor, single point] | 
CCCCC(=O)NC(=S)Nc1cccc(NC(=O)c2ccco2)c1 | inconclusive [inhibitor, single point] | 
Nn1c(SCc2cn3cc(Cl)ccc3n2)nnc1-c1ccncc1 | inconclusive [inhibitor, single point] | 
CCc1ccccc1NC(=O)CSc1nnc([C@@H]2CCCN2C(=O)OC(C)(C)C)o1 | inconclusive [inhibitor, partial curve] | 
Cc1ccc2nc(NC(=O)[C@H](C)N3C(=O)C4CC=CCC4C3=O)sc2c1 (some centres not stated) | inconclusive [inhibitor, partial curve] | 
O=c1c(-c2nc3ccccc3s2)cccn1Cc1ccccc1 | inconclusive [inhibitor, partial curve] | 
Cc1cccc2c(C(=O)Nc3ccc(Br)cc3)cc(-c3ccccn3)nc12 | inconclusive [inhibitor, single point] | 
Cc1oc(-c2ccc(Cl)cc2)nc1CN1CCC(C(=O)N2CCN(Cc3ccccc3)CC2)CC1 | inconclusive [inhibitor, single point] | 
COC(=O)C1=C(C)N(C2CCCCC2)C(=O)/C1=C\c1cccs1 | inactive | 
C=CCOc1ccccc1C1C2=C(CC(C)(C)CC2=O)Nc2c1c(=O)n(C)c(=O)n2C (configuration not stated) | inconclusive [inhibitor, single point] | 
COc1ccc2c(c1)CCc1cn3ncc(C#N)c3nc1-2 | inconclusive [inhibitor, full curve] | 
O=C1Nc2ccccc2C(O)(C(=O)NCc2ccc3c(c2)OCO3)N1c1ccccc1 (configuration not stated) | inconclusive [inhibitor, single point] | 
Cc1c(-n2c(SCC(=O)NC(C)C)nc3ccccc3c2=O)c(=O)n(-c2ccccc2)n1C | inactive | 
CCOC(=O)c1sc2nc(CSCC(=O)OCc3ccc(C(=O)OC)o3)[nH]c(=O)c2c1C | inconclusive [inhibitor, single point] | 
CC(C)(C)c1ccc(C(=O)CSc2n[nH]c(=O)[nH]c2=O)cc1 | inactive | 
CN1CCN(CC#CC(C)(O)C2CC3C=CC2C3)CC1 (configuration not stated) | inconclusive [inhibitor, single point] | 
CCN(c1ccccc1)S(=O)(=O)c1ccc(NC(=S)NC(=O)c2ccc(Br)o2)cc1 | inconclusive [inhibitor, single point] | 
Cc1nn(-c2ccccc2)c2c1C(O)n1c(nc3ccccc31)S2 (configuration not stated) | inactive | 
CCN(CC)S(=O)(=O)c1ccc(/C(O)=C(\C#N)c2nc3ccccc3n2C)cc1 | active: 20 µM | 
O=C(NCCSc1c[nH]c2ccccc12)c1ccco1 | inactive | 
CN1CCN(C(=O)c2c(NC(=O)c3ccco3)sc3c2CCC(C(C)(C)C)C3)CC1 (configuration not stated) | active: 12.6 µM | 
Cc1ccc(-c2nn(CC(=O)NCCN3CCOCC3)c(=O)c3ccccc23)cc1 | inactive | 
CCN(CC)C(=O)CSc1nc2c(c(-c3cccnc3)c1C#N)CCCC2 | inactive | 

SMILES | Potency | activity, negative = inhibition
CO[C@H]1COC(=O)C/C=C\[C@@H](C)COC(=O)[C@@H](C)NC(=O)C/C=C\[C@@H]1C |  | inactive: 15.6% [at 13.5 µM]
NNC(=O)c1cc2c(s1)CCCCCC2 | active: 0.355 µM | 
CCN(CC)c1ccc(/C=N/O)cc1 | inconclusive [inhibitor, single point] | 
O=C(COc1ccc2c3c(c(=O)oc2c1)CCC3)c1ccc2c(c1)OCO2 | inconclusive [inhibitor, partial curve] | 
NC(=O)N/N=C/c1cn(-c2ccccc2)nc1-c1cccs1 | inconclusive [inhibitor, single point] | 
COc1cc(SC)ccc1C(=O)Nc1nc(C)cs1 | inactive | 
CC(Oc1cccc(Cl)c1)c1ccnc2nc(/N=C/N(C)C)nn12 (configuration not stated) | inconclusive [inhibitor, single point] | 
Oc1ccc(Nc2nc(-c3ccc(O)cc3)cs2)cc1 | active: 22.4 µM | 
CNC(=O)CSc1nc2c([nH]c3ccccc32)c(=O)n1CCOC | inconclusive [inhibitor, single point] | 
CCOC(=O)CC(=O)c1cc(OC)c(OC)c(OC)c1 | inconclusive [inhibitor, single point] | 
C/C(=N\NC(=S)NCc1ccccc1)C1CCCCC1 | inconclusive [inhibitor, single point] | 
CN(C)c1ncc2nc(-c3cc(F)cc(F)c3)c(=O)n(CCc3ccccc3)c2n1 | inconclusive [inhibitor, single point] | 
CCCc1ccc(-c2c(C)sc(N)c2C#N)cc1 | active: 20 µM | 
C=CCc1cc(C(=O)N2CCCCC2)ccc1O | inconclusive [inhibitor, single point] | 
COc1cccc(C2=NOC(C(=O)NCc3ccco3)C2)c1 (configuration not stated) | inconclusive [inhibitor, partial curve] | 
Cc1cc(NC(=O)Cn2c(=O)c3c(ncn3CCC(C)C)n(Cc3ccccc3)c2=O)no1 | inconclusive [inhibitor, partial curve] | 
O=C(Nc1cc(SCCO)cc([N+](=O)[O-])c1)c1ccc(Br)o1 | inactive | 
CCCC(=O)NC(=S)Nc1ccccc1F | inactive | 
Cc1cc(C)nc(SCC(=O)NN=C2CCCC2)n1 | inactive | 
CC1=C(C(=O)Nc2ccc(C)cc2)C(c2ccc(C)o2)C2=C(CC(C)(C)CC2=O)N1 (configuration not stated) | inconclusive [inhibitor, single point] | 
O=C(COC(=O)C1CCN(S(=O)(=O)c2ccccc2)CC1)NC(=O)c1ccc(OC(F)F)cc1 | inactive | 
CCCC1Cc2c(sc(NC(=S)NC(=O)c3ccccc3)c2C#N)CO1 (configuration not stated) | inconclusive [inhibitor, partial curve] | 
COc1ccc(-c2oc3ncn(Cc4ccco4)c(=N)c3c2-c2ccc(OC)cc2)cc1 | inconclusive [inhibitor, single point] | 
CC(C)(C)c1cc(P(=O)(c2ccccc2)c2ccccc2)ccc1O | inactive | 

SMILES | Potency | activity, negative = inhibition
CCOC(=O)c1c(-c2ccccc2)cn2c(C)cc(C)nc12 | inconclusive [inhibitor, partial curve] | 
O=C(c1ccc(Br)o1)N1CCN(Cc2ccc3c(c2)OCO3)CC1 | inconclusive [inhibitor, single point] | 
Cc1ccc(C(=O)C[n+]2ccc(-c3nnc4n3CCC4)cc2)cc1 | inconclusive [inhibitor, single point] | 
COC(=O)c1cc(N2CCN(C)CC2)nc2ccccc12 | inconclusive [inhibitor, single point] | 
CN(c1cccc(Cl)c1)S(=O)(=O)c1cccc(C(=O)Nc2ccc3c(c2)CCC3)c1 | active: 11.2 µM | 
Cc1ccc(N2C(=O)/C(=C/c3cccnc3)SC2=S)cc1 | inconclusive [inhibitor, single point] | 
O=C(NCC(O)c1ccc([N+](=O)[O-])cc1)c1cccc(S(=O)(=O)N2CCCC2)c1 (configuration not stated) | inconclusive [inhibitor, single point] | 
O=C(C1CC1)N1N=C2CCCCC2C1(O)C(F)(F)F (configuration not stated) | inactive | 
CCCCOc1ncnc2c1[nH]c1ccc(F)cc12 | inactive | 
COCCCn1c(=NC(=O)c2ccncc2)c(C#N)cc2c(=O)n3cccc(C)c3nc21 | inconclusive [inhibitor, partial curve] | 
Cc1ccc(S(=O)(=O)N2CCC(C(=O)Nc3nnc(-c4ccco4)s3)CC2)cc1 | inconclusive [inhibitor, single point] | 
NC(=O)c1ccsc1NC(=O)c1ccc(S(=O)(=O)N2CCCC2)cc1 | inconclusive [inhibitor, single point] | 
Cc1ccc2[nH]c(=O)c(CN(Cc3cccs3)C(=S)NCc3ccco3)cc2c1 | inconclusive [inhibitor, single point] | 
COCCNC(=O)CSc1nc2cc3c(cc2c(=O)n1CCCC(=O)NCCc1ccc(OC)c(OC)c1)OCO3 | inactive | 
CCc1c(O)nc(SCC(=O)Nc2ccc(OC)cc2)n(C2CCCCC2)c1=O | inconclusive [inhibitor, single point] | 
O=C1CCCC(O)=C1C(C#Cc1ccccc1)C1=C(O)CCCC1=O | active: 6.31 µM | 
CCCNC(=S)NCCN1CCCCC1 | active: 35.5 µM | 
Cc1onc(-c2ccccc2)c1CNS(=O)(=O)c1cccc(Br)c1 | active: 2.82 µM | 
COc1cc(C(=O)NCC(=O)OC(C)C(=O)Nc2ncc(Cl)cc2Cl)cc(OC)c1OC (configuration not stated) | inactive | 
O=C(NCc1ccc2c(c1)OCO2)c1cc2ncc(Br)cn2n1 | inconclusive [inhibitor, single point] | 
COc1ccccc1NS(=O)(=O)c1ccc(Br)s1 | inconclusive [inhibitor, single point] | 
Cc1nc(CNS(=O)(=O)c2cc(C)c(C)cc2C)cs1 | active: 12.6 µM | 
O=C(Nc1cccc(-c2nc3cccnc3s2)c1)C1c2ccccc2Oc2ccccc21 | inconclusive [inhibitor, partial curve] | 
Cc1ccc(-c2nnc(Cc3ccc([N+](=O)[O-])cc3)o2)cc1 | inconclusive [inhibitor, single point] | 
